{
  "source": "paper PMC6212790",
  "note": "This is one part of the list. At the low end of the ranking the order means little.",
  "data": [
    {"target": "T1, GST-Rok (full length) (UniProt O34857)", "T1 sequence": "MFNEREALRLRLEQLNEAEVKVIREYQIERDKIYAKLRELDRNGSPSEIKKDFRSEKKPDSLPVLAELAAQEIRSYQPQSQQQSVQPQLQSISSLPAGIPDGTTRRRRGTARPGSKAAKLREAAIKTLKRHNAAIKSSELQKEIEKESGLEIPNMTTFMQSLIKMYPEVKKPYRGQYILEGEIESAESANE", "test": "protein binding microarray;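 note: rank score from −0.5 (least bound) to 0.5 (best bound)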", "conditions": "Rok is a gene silencer of Bacillus subtilis; high values mean tight binding; most listed sequences are background and not binding sites; double strand, one strand shown", "units": {"binding signal": "E-score"}, "values": [
      {"sequence": "GAGTGGGA", "binding signal": -0.284},
      {"sequence": "AAGAAACG", "binding signal": 0.0658},
      {"sequence": "ACAACATG", "binding signal": 0.0426},
      {"sequence": "ACATGGGC", "binding signal": 0.0493},
      {"sequence": "CATTTGTA", "binding signal": 0.3},
      {"sequence": "AAAGGCCA", "binding signal": -0.282},
      {"sequence": "GTTAGAGA", "binding signal": 0.000885},
      {"sequence": "CGGGCGCA", "binding signal": -0.236},
      {"sequence": "CGAAACCA", "binding signal": -0.108},
      {"sequence": "CCTTACGC", "binding signal": -0.189},
      {"sequence": "AAAGCCGT", "binding signal": -0.122},
      {"sequence": "GGCGTGTA", "binding signal": -0.0602},
      {"sequence": "CGCTGAAG", "binding signal": -0.0962},
      {"sequence": "AACCCTGT", "binding signal": -0.0674},
      {"sequence": "ATCGGAAC", "binding signal": -0.0205},
      {"sequence": "ACACGGCA", "binding signal": 0.0706},
      {"sequence": "ATGTTCCC", "binding signal": 0.0433},
      {"sequence": "ATGTGCCA", "binding signal": -0.0913},
      {"sequence": "ACTCAAGC", "binding signal": 0.0263},
      {"sequence": "AATAGTGA", "binding signal": 0.124},
      {"sequence": "CTCGCTTA", "binding signal": -0.145},
      {"sequence": "ATAATCTC", "binding signal": 0.161},
      {"sequence": "CAGCCACA", "binding signal": -0.408},
      {"sequence": "AAAAACCA", "binding signal": 0.119},
      {"sequence": "ATAGCGGC", "binding signal": 0.0528},
      {"sequence": "CACTGAGC", "binding signal": -0.138},
      {"sequence": "CTCGATGA", "binding signal": 0.122},
      {"sequence": "AAAAATCG", "binding signal": -0.0125},
      {"sequence": "CACACATA", "binding signal": 0.0926},
      {"sequence": "CTACTCTA", "binding signal": 0.168},
      {"sequence": "CCTGTGCA", "binding signal": 0.0836},
      {"sequence": "CAACGTCC", "binding signal": -0.22},
      {"sequence": "AGGCACCA", "binding signal": -0.195},
      {"sequence": "ACGACCCG", "binding signal": -0.313},
      {"sequence": "AGCTTCGA", "binding signal": -0.0406},
      {"sequence": "AGGCCCTG", "binding signal": -0.211},
      {"sequence": "AATCTAGT", "binding signal": 0.377},
      {"sequence": "CGTAAAAC", "binding signal": 0.00692},
      {"sequence": "ACGGTCTA", "binding signal": 0.0646},
      {"sequence": "GCACGGGA", "binding signal": -0.256},
      {"sequence": "ATCTACAC", "binding signal": 0.348},
      {"sequence": "CGGAAACA", "binding signal": 0.0802},
      {"sequence": "CTAAGATA", "binding signal": 0.111},
      {"sequence": "GTCACCAA", "binding signal": -0.00522},
      {"sequence": "AATACCAC", "binding signal": 0.242},
      {"sequence": "ATGCTAGG", "binding signal": -0.0212},
      {"sequence": "CAAGCTGA", "binding signal": -0.187},
      {"sequence": "GAAGGTTA", "binding signal": -0.0133},
      {"sequence": "GAGTATCA", "binding signal": 0.0743},
      {"sequence": "CGCTAGGA", "binding signal": -0.0379},
      {"sequence": "AGGGGTCG", "binding signal": -0.41},
      {"sequence": "AGTAACGC", "binding signal": 0.107},
      {"sequence": "GCCTTCGA", "binding signal": -0.213},
      {"sequence": "ACGTAACC", "binding signal": -0.21},
      {"sequence": "CCGGAAAA", "binding signal": -0.0426},
      {"sequence": "GGGCTAAC", "binding signal": -0.00447},
      {"sequence": "AAGCGTTC", "binding signal": -0.218},
      {"sequence": "CGAGATCC", "binding signal": 0.0734},
      {"sequence": "AGCAAGTC", "binding signal": -0.205},
      {"sequence": "GGGGGAGA", "binding signal": -0.238},
      {"sequence": "GAGGAGAC", "binding signal": -0.267},
      {"sequence": "AGTGTTAT", "binding signal": 0.145},
      {"sequence": "TCCACAAA", "binding signal": 0.0863},
      {"sequence": "AAAGTGAC", "binding signal": 0.0309},
      {"sequence": "ATCCGGGA", "binding signal": -0.0797},
      {"sequence": "GACTTAAC", "binding signal": 0.0786},
      {"sequence": "AGAGTGCG", "binding signal": -0.14},
      {"sequence": "ACTCACCC", "binding signal": -0.14},
      {"sequence": "ACAGAATA", "binding signal": 0.143},
      {"sequence": "ATATCCAA", "binding signal": 0.135},
      {"sequence": "AATGATGG", "binding signal": 0.0224},
      {"sequence": "CGACTTGA", "binding signal": 0.119},
      {"sequence": "GAGTGAAC", "binding signal": -0.108},
      {"sequence": "GGCGCGCC", "binding signal": -0.375},
      {"sequence": "AAGTGAAG", "binding signal": -0.0614},
      {"sequence": "GTAGATCA", "binding signal": 0.255},
      {"sequence": "AACTACTA", "binding signal": 0.474},
      {"sequence": "ACATTTGA", "binding signal": 0.0427},
      {"sequence": "TCTGTGAA", "binding signal": -0.0561},
      {"sequence": "AAGGTGCA", "binding signal": -0.13},
      {"sequence": "ATCGAAGG", "binding signal": -0.188},
      {"sequence": "CTGGGGGC", "binding signal": -0.401},
      {"sequence": "GTAAGGAA", "binding signal": -0.159},
      {"sequence": "ACAGTTAG", "binding signal": 0.194},
      {"sequence": "GAATGGCA", "binding signal": 0.0076},
      {"sequence": "AGAAACAT", "binding signal": 0.155}
    ]}
  ]
}
